Experimental data from the supplement of paper PMC11417369.
This is one part of the list.

Tested on: PF3D7_0420300 AP2 domain 1 (GST-tagged)
Assay: gcPBM binding intensity (ln(normalized median fluorescence intensity)); higher = stronger DNA binding
Procedure, shortened: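 Probes on an Agilent 4 × 180k array were primer-extended, double-stranded and 36 bp long, taken from intergenic genomic regions, with negative controls added. GST-tagged P. falciparum DNA-binding domains from E. coli, about 25 μg on average, were applied to the array for 1 h in 1× PBS containing 1% milk, 0.2 mg/ml BSA, 0.5% salmon testes DNA and 0.03% Triton X-100. Binding intensity, obtained after Alexa488 anti-GST antibody detection and a 488 nm scan, is the highest Masliner-normalised natural-log median intensity across replicate spots of either probe orientation.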

Sequence	gcPBM binding intensity (ln)
GTATGAAATTATAATAGTACATATAAATAAAAAAAA [XGTACX_site8955]	9.33
TATATATAATATATATATATGGAAATTCTTTTAAAT [XGTACX_negctrl_site50]	8.96
TGTATTATATGTAAATGTACATTTAATATTTTATAT [XGTACX_site4461]	9.25
TTTTTATAAAATTTTATGAGCTCGGAAAAAATAAAC [GTGCAC_negctrl_site637]	9.16
ATTTACGCGCTTATTACACACACATACAAATAAGGA [CACACA_site9157]	9.77
TTTTAATATTAAGATGTCTTTTACGTTTATTTTGTA [CACACA_negctrl_site765]	9.23
TAATTATTTGCCCTTACTCTGAACATTCGGAATTTA [CACACA_negctrl_site1278]	9.25
ATCTGCATATATATATGTACATATTTTAGAATGCAC [XGTACX_site708]	9.1
TTCTTTTTAAATTACACACACATATAAATATGTATA [CACACA_site7618]	9.66
TTTATGTGTTATAAATGTACATAATATAATTCGTAT [XGTACX_site3845]	9.21
TTTTTTTTATTTTGTTGTACGCTTATTTGTATATAT [XGTACX_site7325]	9.67
TTATCTATAAATACGAGTACGCAAAATCATATAATA [XGTACX_site2447]	9.17
TTATTTTTTTTTTTTTGTACACAATTTGACACATTA [XGTACX_site7983]	9.24
TTTATTTAATTATGTTGTACATGTAGGATTTATTTT [XGTACX_site7078]	9.22
AAAAAGGAAATAATAACACACATTAATAATTATAAA [CACACA_site3401]	9.6
TAAAAAGTTATATTCACACACATACACATATAAATA [CACACA_site6398]	9.76
AATTATAAATCTTGCACACAAAAAAAATAATAAAAA [CACACA_site2434]	9.48
TAATAAATAATGGTTACACACAAAATATAAAACTTA [CACACA_site3544]	9.48
TAAACACATATATAGACATGCAACTAGTTTTTATAA [TGCATGCA_site474]	9.23
AAATCTTTGTGTGGATGTACTTTTATAAAAAAGAAT [XGTACX_site3830]	9.05
TCTGTTCTTTTTTAATGTACAAGAAATATAAAATTC [XGTACX_site3600]	9.04
AATTTTTAGTATATAACATAAAATAAAATAAAATAA [GTGCAC_negctrl_site696]	9.03

Sequence	gcPBM binding intensity (ln)
TTTTTTTTTATTTGTTGTACGAGGTTTTAAAATTTT [XGTACX_site106]	9.35
TATAATATTCTATATGCATGTACACCATTCTTTATT [TGCATGCA_site688]	9.43
ACAATATCTAGATACACACACATATCTCTCAATCTA [CACACA_site656]	9.76
TATTGTTATCTTTTATGTACTTAAAAAAATAAATTT [XGTACX_site4233]	9.13
AAAAAGGTTATTGGTACACACATATGTATATAAATA [CACACA_site6402]	9.46
TAATAAAACATATATACACACATTATATATACATAT [CACACA_site8495]	9.6
GTAGGCATTAAAAAATGTACAAAATATTATGAATTG [XGTACX_site1615]	9.17
GTTAAAAAAAGGAGAGATCTCACACAAATATATATA [GTGCAC_negctrl_site117]	9.22
CATTTAATAATAACAAGTACACAAAGATGTATAACA [XGTACX_site8315]	9.38
CATAAATACTATATATGTACGTAATTTTTAAAACAT [XGTACX_site7710]	9.25
ATGATAAATATAAGTTGTACATATATCTATGTGCAT [XGTACX_site6010]	9.26
AATATATATGAAAAAAGTACTCAAGGAATAAAAAAA [XGTACX_site7720]	9.42
GGGTGCCAAATTAGCACACACATATATACCTGAATT [CACACA_site5551]	9.55
TATATATATATATATGTGCGCATTACTTTAAGAATA	9.09
TTACAAATAATTTGTTGTACGCTTTTTTTCTTTTTT [XGTACX_site7199]	9.48
ATTTTTTTGTTAATTTGTACATAAAATTTTATTTTA [XGTACX_site7007]	9.19
ATATTTATTTTATAAAGTACTAAAAAATATATTATA [XGTACX_site8522]	8.77
AAAAAAAAAAAAAAAACACACAAACGCTTTTTTTTT [CACACA_site4545]	9.36
GGATAAGAGGCATATACACACAATTTAAAAAAATAA [CACACA_site4657]	9.46
ATAAATATTGCGTGCACACACATAATATTTATATAT [CACACA_site7136]	9.47
TATAATATATTCATGTGTACATATATTTCGAACATA [XGTACX_site1754]	9.2
CGAAAAATATGTATGAGTACTTATATTTAAACTATA [XGTACX_site1911]	9.14
